The text below walks through data of the supplement of paper PMC11171410.

Counter-ions that a name gives are not always drawn. Most values come without repeats; read them as rough. Where a SMILES comes first, the peptide text is derived from it. [ ]: non-standard residue; d: D form. The star is where a group is joined. Dolaproine = CO[C@@H]([C@@H]1CCCN1)[C@@H](C)C(=O)O; Dil = CC[C@H](C)[C@H](NC)[C@@H](CC(=O)O)OC; X1 = C[C@@H](N*)[C@@H](O)c1ccccc1; NMeV = CN[C@H](C(=O)O)C(C)C

Assay [1] relates to SUDHL6 parental. The assay is described as follows: estimated IC50 (cell viability); higher = less potent.
Assay [2] concerns SUDHL6 venetoclax-resistant. Described as above.
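Note: compound screen comparing venetoclax-resistant SUDHL6, derived by months of escalating venetoclax exposure, with its matched parental line, IC50 from one-site nonlinear dose–response fit, geometric mean for duplicated compounds.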

As to `Cc1cc([N+](=O)[O-])ccc1NS(=O)(=O)c1cc(Cl)ccc1Cl` [FH535], the “estimated IC50” value in assay [1] is 7430 nM; in assay [2] it was 2670 nM.

For the compound `CCn1c(=O)c(-c2ccc(Cl)cc2Cl)cc2cnc(Nc3ccc(N4CCNCC4)c(F)c3)nc21` [FRAX486], the “estimated IC50” value in assay [1] was 6710 nM; in assay [2], 2680 nM.

With `CCCCCCCCc1ccc(CCC(N)(CO)CO)cc1` [Fingolimod (FTY720) HCl], the results for the “estimated IC50” value in assay [1] and in assay [2] were greater than 10000 nM and 3200 nM, respectively.

On to `Nc1nc(F)nc2c1ncn2[C@@H]1O[C@H](COP(=O)(O)O)[C@@H](O)[C@@H]1O` [Fludarabine phosphate], for which the “estimated IC50” value is 3200 nM in assay [1] and 1740 nM in assay [2].

As for `C=C[C@@]1(C)CC(=O)[C@]2(O)[C@@]3(C)[C@@H](O)CCC(C)(C)[C@@H]3[C@H](O)[C@H](OC(C)=O)[C@@]2(C)O1` [Forskolin], the “estimated IC50” value was greater than 10000 nM in assay [1] and 2250 nM in assay [2].

For `CC(C)n1ncnc1-c1cn2c(n1)-c1ccc(O[C@@H](C)C(N)=O)cc1OCC2` [GDC-0326], the “estimated IC50” value in assay [1] was 8040 nM; in assay [2] it was 940 nM.

As for `C(#Cc1nc2ncccc2nc1OCCN1CCCC1)c1ccccc1` [GK921], the “estimated IC50” value is 870 nM in assay [1] and 570 nM in assay [2].

Consider `CCCc1cc(C)[nH]c(=O)c1CNC(=O)c1cc(-c2ccnc(N3CCN(C)CC3)c2)cc2c1cnn2C(C)C` [GSK343], for which the “estimated IC50” value was 6130 nM in assay [1] and 2860 nM in assay [2].

`O=C(O)c1cc(O)c(O)c(O)c1` [Gallic acid]: the “estimated IC50” value in assay [1] was 7120 nM; in assay [2], 4270 nM.

Consider `Nc1ccn([C@@H]2O[C@H](CO)[C@@H](O)C2(F)F)c(=O)n1` [Gemcitabine], for which the “estimated IC50” value was 2000 nM in assay [1] and 450 nM in assay [2].

On to `O=S(=O)(NCCNC/C=C/c1ccc(Br)cc1)c1cccc2cnccc12` [H 89 dihydrochloride], for which the “estimated IC50” value in assay [1] was 9070 nM; in assay [2], 1800 nM.

For `COc1cc(N2CCC(N3CCN(C)CC3)CC2)ccc1Nc1ncc(Cl)c(-c2c[nH]c3ccccc23)n1` [HG-14-10-04], the “estimated IC50” value in assay [1] is 7300 nM; in assay [2], 4100 nM.

Regarding `N#Cc1c2nc3ccccc3nc2n2ccc(NC(=O)c3cccs3)cc12` [HI-TOPK-032], the “estimated IC50” value in assay [1] was 7910 nM; in assay [2], 2870 nM.

Take `COc1ccc(S(=O)(=O)/N=C2\C=CC=C\C2=C/C=C2C=CN(O)C=C2)cc1` [HMN-176]: the “estimated IC50” value in assay [1] is 700 nM; in assay [2], 400 nM.

Turning to `CCOC(=O)c1cnc2ccc(-c3cncc(NS(=O)(=O)c4ccccc4)c3)cn12` [HS-173], the results for the “estimated IC50” value in assay [1] and in assay [2] were 530 nM and 240 nM, respectively.

In the case of `CCS(=O)(=O)Nc1ccc2c(c1)/C(=C(/Nc1ccc(CN3CCCCC3)cc1)c1ccccc1)C(=O)N2` [Hesperadin], the “estimated IC50” value was 5050 nM in assay [1] and 940 nM in assay [2].

As to `COc1cc2c(cc1-c1c(C)noc1C)ncc1[nH]c(=O)n([C@H](C)c3ccccn3)c12` [I-BET151], the results for the “estimated IC50” value in assay [1] and in assay [2] were greater than 10000 nM and 2800 nM, respectively.

In the case of `O=C(c1ccc(Nc2nccc(-c3cc4ccccc4s3)n2)cc1)N1CCC(N2CCCC2)CC1` [IKK-16 (IKK Inhibitor VII)], the “estimated IC50” value in assay [1] was 5220 nM; in assay [2] it was 2280 nM.

Regarding `C[C@H](NC(=O)c1c(N)nn2cccnc12)c1cc2cccc(C#Cc3cnn(C)c3)c2c(=O)n1-c1ccccc1` [IPI-549], the “estimated IC50” value was 5580 nM in assay [1] and 2560 nM in assay [2].

Take `O=C(Cn1nnc(-c2ccncc2)c1-c1ccccc1)Nc1ccc(-c2ccccc2)cn1` [IWP-O1]: the “estimated IC50” value in assay [1] was 5730 nM; in assay [2], 2710 nM.

Regarding `CC[C@H](Nc1ncnc2[nH]cnc12)c1nc2cccc(F)c2c(=O)n1-c1ccccc1` [Idelalisib (CAL-101, GS-1101)], the entries for the “estimated IC50” value in assay [1] and in assay [2] were greater than 10000 nM and 3100 nM, respectively.

Consider `CC(C)C[C@H](NC(=O)CNC(=O)c1cc(Cl)ccc1Cl)B(O)O` [Ixazomib (MLN2238)], for which the “estimated IC50” value in assay [1] was 60 nM; in assay [2], 40 nM.

Turning to `Clc1ccc(NN=C(c2ccccc2)c2ccccn2)nc1` [JIB-04], the “estimated IC50” value was 940 nM in assay [1] and 600 nM in assay [2].

In the case of `Cc1cc(NC(=O)c2cccc(NC(=O)/C=C/CN(C)C)c2)ccc1Nc1nccc(-c2cccnc2)n1` [JNK-IN-8], the “estimated IC50” value in assay [1] was 8440 nM; in assay [2], 3730 nM.

For the compound `COCCNC1CCC(Nc2cc(-c3csc(NCC4(C#N)CCOCC4)n3)c(Cl)cn2)CC1` (stereo unspecified) [JSH-150], the “estimated IC50” value in assay [1] is 350 nM; in assay [2] it was 100 nM.

Consider `CC(C)CNc1ccnc(NCc2csc(-c3ccccc3)n2)n1` [KHS101 hydrochloride], for which the “estimated IC50” value in assay [1] is 4000 nM; in assay [2], 2200 nM.

For `O=C(Cc1ccc(-c2ccc(OCCN3CCOCC3)cc2)cn1)NCc1ccccc1` [KX2-391], the “estimated IC50” value in assay [1] was 105 nM; in assay [2] it was 58 nM.

`COc1cc(C(=O)N2CCC(N3CCN(C)CC3)CC2)ccc1Nc1ncc2c(n1)N(C)c1ccccc1C(=O)N2C` [LRRK2-IN-1]: the results for the “estimated IC50” value in assay [1] and in assay [2] were 8700 nM and 5400 nM, respectively.

As for `Oc1ccc2c(c1)CC[C@H](c1ccccc1)[C@@H]2c1ccc(OCCN2CCCC2)cc1` [Lasofoxifene Tartrate], the “estimated IC50” value in assay [1] was greater than 10000 nM; in assay [2] it was 6630 nM.

Regarding `CCC[C@H](Nc1nc(-c2ccc(NC(=O)NCC)c(OC)c2)ncc1C)c1cccnc1` [Lexibulin (CYT997)], the “estimated IC50” value is 75 nM in assay [1] and 36 nM in assay [2].

`C=CC(C)(C)c1cc(/C=C/C(=O)c2ccc(O)cc2)c(OC)cc1O` [Licochalcone A]: the “estimated IC50” value in assay [1] is 4570 nM; in assay [2], 2120 nM.

Take `CCNC(=O)c1noc(-c2cc(C(C)C)c(O)cc2O)c1-c1ccc(CN2CCOCC2)cc1` [Luminespib (AUY-922, NVP-AUY922)]: the “estimated IC50” value was 60 nM in assay [1] and 40 nM in assay [2].

On to `Cn1cc(/C=C/C(=O)c2cccc(F)c2)cc1/C=C/C(=O)NO` [MC 1568], for which the “estimated IC50” value in assay [1] was 7600 nM; in assay [2], 4150 nM.

Regarding `CCC1C/C(=C\c2cccnc2)C(=O)/C(=C/c2cccnc2)C1` (stereo unspecified) [MCB-613], the “estimated IC50” value was 1640 nM in assay [1] and 680 nM in assay [2].

`NC1(c2ccc(-c3nc4ccn5c(=O)[nH]nc5c4cc3-c3ccccc3)cc2)CCC1` [MK-2206 2HCl]: the results for the “estimated IC50” value in assay [1] and in assay [2] were greater than 10000 nM and 1900 nM, respectively.

On to `O=C(O)Cn1nnc(-c2cc(N3CCC(Oc4cc(F)ccc4Br)CC3)no2)n1` [MK-8245], for which the “estimated IC50” value was greater than 10000 nM in assay [1] and 4790 nM in assay [2].

With `CN(C(=O)CNC(=O)/C=C/c1cccc(Cl)c1)C1CCS(=O)(=O)CC1` [ML264], the entries for the “estimated IC50” value in assay [1] and in assay [2] were greater than 10000 nM and 1780 nM, respectively.

Take `Cc1ccc(S(=O)(=O)Nc2cc(C(F)(F)F)ccc2C(=O)Nc2nc(-c3ccccc3)cs2)cc1` [ML364]: the “estimated IC50” value in assay [1] was greater than 10000 nM; in assay [2], 3420 nM.

For `Cc1ncc(CCCN(C)C)cc1Nc1ncc2c(n1)-c1ccc(C(F)(F)F)cc1NC(=S)C2` [MLN0905], the figures for the “estimated IC50” value in assay [1] and in assay [2] were 495 nM and 87 nM, respectively.

`CC(C)Oc1ccc(-c2c[nH]cc2CN(C)CCN)cc1` [MS023]: the results for the “estimated IC50” value in assay [1] and in assay [2] were 9790 nM and 6540 nM, respectively.

As to `CS(=O)(=O)Nc1cc(-c2ccc3ncnc(Nc4ccc(F)c(Cl)c4)c3c2)cnc1Cl` [MTX-211], the “estimated IC50” value in assay [1] is 900 nM; in assay [2], 200 nM.

Regarding `O=C(c1ccccc1O)c1[nH]c(Cl)c(Cl)c1-n1c(C(=O)c2ccccc2O)cc(Cl)c1Cl` [Marinopyrrole A (Maritoclax)], the “estimated IC50” value was 1900 nM in assay [1] and 1100 nM in assay [2].

With `COC(=O)Nc1nc2cc(C(=O)c3ccccc3)ccc2[nH]1` [Mebendazole], the “estimated IC50” value was 6320 nM in assay [1] and 3770 nM in assay [2].

`CN(C)c1ccc2nc3ccc(=[N+](C)C)cc-3sc2c1` [Methylene Blue]: the results for the “estimated IC50” value in assay [1] and in assay [2] were 1950 nM and 860 nM, respectively.

Regarding `Nc1ncccc1-c1nc2ccc(-c3ccccc3)nc2n1-c1ccc(C2(N)CCC2)cc1` [Miransertib (ARQ 092) HCl], the entries for the “estimated IC50” value in assay [1] and in assay [2] were 9320 nM and 1030 nM, respectively.

As for `O=C1c2c(O)ccc(O)c2C(=O)c2c(NCCNCCO)ccc(NCCNCCO)c21` [Mitoxantrone 2HCl], the “estimated IC50” value in assay [1] is 3080 nM; in assay [2], 1190 nM.

With `CCS(=O)(=O)Nc1ccc(Oc2ccc(F)cc2F)c(-c2cn(C)c(=O)c3[nH]ccc23)c1` [Mivebresib(ABBV-075)], the “estimated IC50” value was 203 nM in assay [1] and 70 nM in assay [2].

On to `CC[C@H](C)[C@@H]([C@@H](CC(=O)N1CCC[C@H]1[C@H](OC)[C@@H](C)C(=O)N[C@H](C)[C@@H](O)c1ccccc1)OC)N(C)C(=O)[C@@H](NC(=O)[C@@H](NC)C(C)C)C(C)C` [Monomethyl auristatin E (MMAE)] (H-[NMeV]V[Dil][Dolaproine]-X1), for which the “estimated IC50” value in assay [1] was 4.1 nM; in assay [2] it was 0.8 nM.

Turning to `CC(C)=CCc1c(-c2ccc(O)cc2O)oc2c3c(cc(O)c2c1=O)OC(C)(C)C=C3` [Morusin], the entries for the “estimated IC50” value in assay [1] and in assay [2] were 3230 nM and 1760 nM, respectively.

Consider `FC(F)(F)c1ccc(/C=C/c2nc(COc3ccc(CCCCn4ccnn4)cc3)co2)cc1` [Mubritinib (TAK 165)], for which the “estimated IC50” value in assay [1] is 42 nM; in assay [2], 28 nM.

For the compound `FC(F)(F)c1ccc(/C=C/c2nc(COc3ccc(CCCCn4ccnn4)cc3)co2)cc1` [Mubritinib], the “estimated IC50” value in assay [1] is greater than 10000 nM; in assay [2], 2870 nM.

As for `O=c1cc(-c2ccc([N+](=O)[O-])cc2)nc2c(-c3ccc(Cl)cc3)c(Cc3ccccc3)[nH]n12` [NAV-2729], the “estimated IC50” value is 5910 nM in assay [1] and 3860 nM in assay [2].

Consider `Cc1c(O)cccc1C(=O)N[C@@H](CSc1ccccc1)[C@H](O)CN1C[C@H]2CCCC[C@H]2C[C@H]1C(=O)NC(C)(C)C` [Nelfinavir Mesylate], for which the “estimated IC50” value in assay [1] is greater than 10000 nM; in assay [2], 2800 nM.
